Some of the results follow. Sequences were assembled here from the parent chain. Inactive controls read about 0.05.
B1: TEV protease; numbered along this chain (parent)
chain: MGESLFKGPRDYNPISSSICHLTNESDGHTTSLYGIGFGPFIITNKHLFRRNNGTLVVQSLHGVFKVKDTTTLQQHLVDGRDMIIIRMPKDFPPFPQKLKFREPQREERICLVTTNFQTKSMSSMVSDTSCTFPSGDGIFWKHWIQTKDGQCGSPLVSTRDGFIVGIHSASNFTNTNNYFTSVPKNFMELLTNQEAQQWVSGWRLNADSVLWGGHKVFMVKPEEPFQPVKEATQL

Variants of: B1
Experiment: raw area under fraction-flipped curve 0-4 h after induction (AUC4h, not background-subtracted), DNA-recorder readout of cleavage of the substrate (dimensionless); higher = more cleavage of the substrate by the protease variant
Details: temperature: 34 °C; time window: 0-4 h after rhamnose induction
Description: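 In vivo DNA recorder in E. coli TOP10(DE3) ΔrhaA at 34 °C. Each TEVp single-site mutant (parent TEVp 0) is paired with a single-site variant of the 7-mer TEVs (canonical ENLYFQ|S). The substrate sits between flexible linkers in a Bxb1-sfGFP-TEVs-SsrA fusion, so cleavage stabilises Bxb1 and speeds flipping of a recombination array, read by NGS. The value is the raw area under the fraction-flipped curve over 0-4 h after rhamnose induction (AUC4h), with ≥20 reads per time point. It is not background-subtracted; inactive controls average about 0.047.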
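Also: Bxb1 expression induced with 0.2% (w/v) L-rhamnose at OD600 near 0.5, cultures sampled hourly, flipped fraction per protease–substrate barcode pair counted by paired-end Illumina sequencing.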

Variant	area with substrate EALYFQS	area with substrate ECLYFQS	area with substrate EDLYFQS	area with substrate EELYFQS	area with substrate EFLYFQS	area with substrate EGLYFQS	area with substrate EILYFQS	area with substrate EKLYFQS	area with substrate ELLYFQS	area with substrate EMLYFQS	area with substrate EQLYFQS	area with substrate ERLYFQS	area with substrate ESLYFQS	area with substrate ETLYFQS	area with substrate EVLYFQS	area with substrate EWLYFQS	area with substrate EYLYFQS	area with substrate EHLYFQS	area with substrate EPLYFQS
MGESLFKGPRVYNPISSSICHLTNESDGHTTSLYGIGFGPFIITNKHLFRRNNGTLVVQSLHGVFKVKDTTTLQQHLVDGRDMIIIRMPKDFPPFPQKLKFREPQREERICLVTTNFQTKSMSSMVSDTSCTFPSGDGIFWKHWIQTKDGQCGSPLVSTRDGFIVGIHSASNFTNTNNYFTSVPKNFMELLTNQEAQQWVSGWRLNADSVLWGGHKVFMVKPEEPFQPVKEATQL [D11V]	0.083	0.0806	0.101	0.129	0.0668	0.0934	0.0888	0.117	0.0572	0.0887	0.102	0.0909	0.0867	0.0721	0.0965	0.0817	0.0676	–	–
MGESLFKGPRDLNPISSSICHLTNESDGHTTSLYGIGFGPFIITNKHLFRRNNGTLVVQSLHGVFKVKDTTTLQQHLVDGRDMIIIRMPKDFPPFPQKLKFREPQREERICLVTTNFQTKSMSSMVSDTSCTFPSGDGIFWKHWIQTKDGQCGSPLVSTRDGFIVGIHSASNFTNTNNYFTSVPKNFMELLTNQEAQQWVSGWRLNADSVLWGGHKVFMVKPEEPFQPVKEATQL [Y12L]	0.12	0.121	0.116	0.18	–	–	0.102	0.0857	0.069	0.116	0.113	0.104	0.116	–	–	–	–	–	–
MGESLFKGPRDYEPISSSICHLTNESDGHTTSLYGIGFGPFIITNKHLFRRNNGTLVVQSLHGVFKVKDTTTLQQHLVDGRDMIIIRMPKDFPPFPQKLKFREPQREERICLVTTNFQTKSMSSMVSDTSCTFPSGDGIFWKHWIQTKDGQCGSPLVSTRDGFIVGIHSASNFTNTNNYFTSVPKNFMELLTNQEAQQWVSGWRLNADSVLWGGHKVFMVKPEEPFQPVKEATQL [N13E]	0.116	0.0892	0.133	0.115	–	–	0.097	–	0.137	0.108	0.0782	0.108	–	0.0936	0.101	0.107	–	0.123	0.0927
MGESLFKGPRDYIPISSSICHLTNESDGHTTSLYGIGFGPFIITNKHLFRRNNGTLVVQSLHGVFKVKDTTTLQQHLVDGRDMIIIRMPKDFPPFPQKLKFREPQREERICLVTTNFQTKSMSSMVSDTSCTFPSGDGIFWKHWIQTKDGQCGSPLVSTRDGFIVGIHSASNFTNTNNYFTSVPKNFMELLTNQEAQQWVSGWRLNADSVLWGGHKVFMVKPEEPFQPVKEATQL [N13I]	0.111	0.107	0.113	–	0.08	0.0943	0.0835	0.103	0.0857	0.0963	0.0963	–	0.105	0.0996	0.0826	0.076	0.0805	–	0.104
MGESLFKGPRDYLPISSSICHLTNESDGHTTSLYGIGFGPFIITNKHLFRRNNGTLVVQSLHGVFKVKDTTTLQQHLVDGRDMIIIRMPKDFPPFPQKLKFREPQREERICLVTTNFQTKSMSSMVSDTSCTFPSGDGIFWKHWIQTKDGQCGSPLVSTRDGFIVGIHSASNFTNTNNYFTSVPKNFMELLTNQEAQQWVSGWRLNADSVLWGGHKVFMVKPEEPFQPVKEATQL [N13L]	0.112	0.0778	0.154	0.141	–	–	–	0.117	0.126	0.114	0.134	0.113	0.113	–	0.103	0.103	0.117	0.107	0.111
MGESLFKGPRDYPPISSSICHLTNESDGHTTSLYGIGFGPFIITNKHLFRRNNGTLVVQSLHGVFKVKDTTTLQQHLVDGRDMIIIRMPKDFPPFPQKLKFREPQREERICLVTTNFQTKSMSSMVSDTSCTFPSGDGIFWKHWIQTKDGQCGSPLVSTRDGFIVGIHSASNFTNTNNYFTSVPKNFMELLTNQEAQQWVSGWRLNADSVLWGGHKVFMVKPEEPFQPVKEATQL [N13P]	0.0929	0.106	0.138	0.125	–	0.0972	0.0811	0.0972	0.0986	0.117	0.12	0.0862	0.0978	0.0979	0.102	0.0814	0.11	0.0874	0.121
MGESLFKGPRDYNAISSSICHLTNESDGHTTSLYGIGFGPFIITNKHLFRRNNGTLVVQSLHGVFKVKDTTTLQQHLVDGRDMIIIRMPKDFPPFPQKLKFREPQREERICLVTTNFQTKSMSSMVSDTSCTFPSGDGIFWKHWIQTKDGQCGSPLVSTRDGFIVGIHSASNFTNTNNYFTSVPKNFMELLTNQEAQQWVSGWRLNADSVLWGGHKVFMVKPEEPFQPVKEATQL [P14A]	0.129	0.116	0.121	0.147	0.112	0.115	0.126	–	–	–	0.148	0.103	0.124	–	0.0938	0.141	0.123	–	0.159
MGESLFKGPRDYNMISSSICHLTNESDGHTTSLYGIGFGPFIITNKHLFRRNNGTLVVQSLHGVFKVKDTTTLQQHLVDGRDMIIIRMPKDFPPFPQKLKFREPQREERICLVTTNFQTKSMSSMVSDTSCTFPSGDGIFWKHWIQTKDGQCGSPLVSTRDGFIVGIHSASNFTNTNNYFTSVPKNFMELLTNQEAQQWVSGWRLNADSVLWGGHKVFMVKPEEPFQPVKEATQL [P14M]	0.0877	0.099	0.144	–	–	0.137	0.106	0.0991	0.104	–	0.148	0.0878	0.113	0.148	0.11	0.0916	0.0997	0.101	–
MGESLFKGPRDYNTISSSICHLTNESDGHTTSLYGIGFGPFIITNKHLFRRNNGTLVVQSLHGVFKVKDTTTLQQHLVDGRDMIIIRMPKDFPPFPQKLKFREPQREERICLVTTNFQTKSMSSMVSDTSCTFPSGDGIFWKHWIQTKDGQCGSPLVSTRDGFIVGIHSASNFTNTNNYFTSVPKNFMELLTNQEAQQWVSGWRLNADSVLWGGHKVFMVKPEEPFQPVKEATQL [P14T]	0.121	0.0921	0.122	0.11	0.156	–	0.0966	0.112	0.097	0.106	0.138	0.108	0.105	0.112	0.103	0.0805	0.0983	–	0.13

Source: the supplement of paper PMC12217912
